Some entries of the source have several records that differ or are many. Only these are listed. An entry can have further records. Results that share an entry repeat one measurement in other runs, samples, wells, individuals or studies.
Test system: 855422-203-R-J1-PDC complex spheroid viability
Assay: Anticancer human tumor 855422-203-R-J1-PDC patient-derived bladder carcinoma cell line growth inhibition
Conditions: stronger effect = lower value
From the text: Multicellular complex tumor spheroid response to LSD1 Inhibitor Iadademstat in combination with a variety of drugs and investigational agents in selected tumor cell lines
The current study was undertaken to assess response to LSD1 inhibitors in combination with standard-of-care drugs and investigational agents in solid tumor complex spheroid models as well as in the K-562 leukemia. Complex spheroids include a stromal component modeled by human endothelial cells (HUVEC) and fibroblasts modeled by human mesenchymal stem cells (MSCs). The concentration ranges selected for each drug and investigational agent were based upon clinically achievable concentrations if the clinical Cmax of the agent was known.
Compounds. The drugs and investigational agents used in this study are listed on Table 1. All of the agents used, including staurosporine (NSC755774) and gemcitabine (NSC613327), were obtained from the Developmental Therapeutics Program, NCI. FDA-approved anticancer drugs are available from the NCI at http://dtp.nci.nih.gov/branches/dscb/oncology_drugset_explanation.html. Drugs and investigational agents were >95% pure by proton nuclear magnetic resonance (NMR) and liquid chromatography/mass spectrometry (LC/MS). […] If the clinical Cmax for an agent had not been determined, the highest concentration tested was 10 microM. […]
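Also: drug exposure lasted 7 days starting on day 3 after seeding; luminescence viability as percent of DMSO vehicle wells = 100%.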

Q: What does the source list for `NC1CC1c1ccc(-c2cccc(O)c2)cc1` (configuration not stated)?
A: viability, T/C (compound alone 3.16 µM): 82.6, 84, 93, 88.7, 83.7, 96.3, 85.5, 87.7, 84.7, 87.8, 94, 90.4, 94.6, 87, 88.2, 109, 86.5, 91.4, 86.7, 91.7, 83, 81.5, 89.4, 85, 92.3%; viability, T/C (compound alone 10 µM): 81, 74.3, 97, 81.8, 78.8, 94.1, 80.7, 88.1, 82.9, 90.6, 89.5, 97.3, 85.1, 81.3, 83, 114, 84.2, 87.3, 78.9, 94.2, 76.9, 91.5, 85.3, 95.5%

Reference: PubChem BioAssay AID1918943 (Molecular Pharmacology Branch, DTP, NCI, 2023)
